Experimental data published in PubChem BioAssay (NCI).
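Values below derive from 48-hour exposures of cells grown in 96-well plates, with endpoints linearly interpolated between the two concentrations bracketing the appropriate inhibition level. GI50 marks 50% less growth. TGI: total growth inhibition.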

Each molecule was assayed on NCI-H322M lung (assay: NCI-60 cell line screen, 48 h).

| SMILES | GI50 [µM] | TGI [µM] |
| --- | --- | --- |
| CN1CCc2c(sc3ncnc(N/N=C/c4ccc(Cl)cc4Cl)c23)C1 | 3.29 | > 100 |
| Nc1nnc(-c2c[nH]c3ncc(Br)cc23)c(-c2c[nH]c3ccc(Br)cc23)n1 | 11 | 27.8 |
| O=C(/C=C/c1cccc(OCc2ccc(F)cc2)c1)c1nc2ccccc2[nH]1 | 59.9 | > 100 |
| COc1cccc(-c2ccc(/C=N/NC(=O)c3[nH]c4ccc(Br)cc4c3-c3ccccc3)o2)c1 | 7.5 | > 100 |
| O=C(CNc1nc(-c2ccccc2)cs1)Nc1ccc([N+](=O)[O-])cc1Cl | 6.66 | 19.9 |
